According to PubChem BioAssay AID504332 (National Center for Advancing Translational Sciences (NCATS), 2011):
Hit rate of the full screen: of about 350,000 compounds, about 31,000 (8.9%) were called active. This list was built around the results that the source calls inconclusive (neither active nor inactive); the mix of calls is not that of the screen. Calls come from the whole dose curve; as a rule, active = well fitted inhibition curve with a large enough effect; inconclusive = small, poorly fitted or top-dose-only effect; inactive = no such curve, though single readings can be large or run the other way. Where the call is inconclusive, the potency comes from a doubtful curve fit.

Each molecule was assayed against Histone-lysine N-methyltransferase EHMT2 (Homo sapiens) (UniProt Q96KQ7) (assay: qHTS Assay for Inhibitors of Histone Lysine Methyltransferase G9a). Conditions: G9a H3K9 monomethylation, AlphaScreen, 2 h; activity, negative = inhibition: at 59 µM (top of the series) unless noted.
UniProt Q96KQ7, sequence (Q96KQ7 whole entry, looked up): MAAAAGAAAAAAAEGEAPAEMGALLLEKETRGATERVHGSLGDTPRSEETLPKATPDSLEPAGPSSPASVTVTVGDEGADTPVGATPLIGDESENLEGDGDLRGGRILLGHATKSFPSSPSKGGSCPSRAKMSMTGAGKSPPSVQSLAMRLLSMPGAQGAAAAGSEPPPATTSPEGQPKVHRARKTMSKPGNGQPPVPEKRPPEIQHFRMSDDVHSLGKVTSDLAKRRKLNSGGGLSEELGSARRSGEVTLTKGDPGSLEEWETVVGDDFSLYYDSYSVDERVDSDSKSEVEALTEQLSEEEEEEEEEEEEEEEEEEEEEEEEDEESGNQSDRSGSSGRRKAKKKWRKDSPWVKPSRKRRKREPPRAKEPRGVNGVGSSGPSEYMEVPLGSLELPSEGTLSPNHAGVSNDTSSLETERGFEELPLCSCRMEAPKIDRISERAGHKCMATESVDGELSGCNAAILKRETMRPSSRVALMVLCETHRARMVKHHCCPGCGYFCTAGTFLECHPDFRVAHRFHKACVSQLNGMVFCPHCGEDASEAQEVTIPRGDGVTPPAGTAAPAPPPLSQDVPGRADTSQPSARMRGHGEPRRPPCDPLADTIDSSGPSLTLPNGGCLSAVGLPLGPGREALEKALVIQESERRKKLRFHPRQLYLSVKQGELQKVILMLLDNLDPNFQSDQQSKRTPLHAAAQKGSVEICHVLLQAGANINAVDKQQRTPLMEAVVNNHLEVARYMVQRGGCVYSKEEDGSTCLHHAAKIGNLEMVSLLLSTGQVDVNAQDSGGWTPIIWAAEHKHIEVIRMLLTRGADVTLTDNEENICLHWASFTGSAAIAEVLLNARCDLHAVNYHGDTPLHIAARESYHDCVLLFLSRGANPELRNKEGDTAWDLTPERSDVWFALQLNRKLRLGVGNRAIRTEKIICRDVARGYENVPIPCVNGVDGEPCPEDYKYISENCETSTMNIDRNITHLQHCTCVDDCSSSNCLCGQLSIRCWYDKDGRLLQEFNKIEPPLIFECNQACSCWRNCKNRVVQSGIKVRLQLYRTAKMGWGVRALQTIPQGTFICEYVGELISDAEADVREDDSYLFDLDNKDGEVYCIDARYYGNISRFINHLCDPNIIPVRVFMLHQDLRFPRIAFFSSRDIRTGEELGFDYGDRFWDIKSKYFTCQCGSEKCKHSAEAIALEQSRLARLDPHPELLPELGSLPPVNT
In short: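 Enzyme 20 nM + cpd, 15 min RT; add b-H3K9 pep 500 nM / SAM 20 uM; 2 h RT; anti-H3K9me1 Ab 0.5 ug/mL + SA donor / anti-rabbit acceptor beads 20 ug/mL each, 10 min; AlphaScreen read.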
% is set by controls: 0 for no effect and ±100 for the full control effect; potency is the fitted concentration of half-maximal effect; tags give direction and shape of the fitted curve.
Note: nearly all actives have a fitted effect of over 75% in size.

| Structure (SMILES) | activity, negative = inhibition | Potency |
| --- | --- | --- |
| COc1ccc(CC(=O)NCc2nnc(SCC(=O)Nc3cccc(F)c3)n2C)cc1 | inactive: 26.6% [at 12.7 µM] | – |
| CCN(CCCNC(=O)c1ccc(Sc2ccc(Cl)cc2)c(NC(C)=O)c1)c1cccc(C)c1 | – | active: 12.6 µM |
| COc1ccc(OCC(=O)N/N=C/C(C)=C/c2ccco2)c(Br)c1 | – | inconclusive: 89.1 µM [inhibitor, single point] |
| COc1cc(CNc2ccc(C)c(C)c2)cc(OC)c1OC | – | inconclusive: 2 µM [inhibitor, full curve, poor fit] |
| CC1CCN(C(c2cccs2)c2nnnn2Cc2ccccc2)CC1 (configuration not stated) | – | inconclusive: 89.1 µM [inhibitor, single point] |
| O=C(CSc1oc(-c2ccco2)nc1S(=O)(=O)c1ccc(Br)cc1)c1ccc(Cl)cc1 | – | inconclusive: 28.2 µM [inhibitor, single point] |
| Cc1ccc(C2CC(c3cccs3)=NN2C(=O)c2ccco2)o1 (configuration not stated) | – | active: 35.5 µM |
| CCC(=O)Nc1cccc(NC(=S)NC(=O)c2ccccc2Cl)c1 | – | inactive |
| COc1cccc(-c2csc(N3CCN(C(=O)Nc4ccc(F)cc4)CC3)n2)c1 | – | inconclusive: 39.8 µM [inhibitor, single point] |
| COc1cccc(C2=CC(c3ccccc3)n3ncnc3N2)c1 (configuration not stated) | – | inconclusive: 12.6 µM [inhibitor, partial curve, poor fit] |
| CCN(CC)c1ccc(C=C2C(=O)OC3(CCCCC3)OC2=O)cc1 | – | inconclusive: 44.7 µM [inhibitor, partial curve, poor fit] |
| Cc1ccc(-n2ncc3c(NCc4ccccc4)ncnc32)cc1C | – | inactive |
| O=C(CCl)N=c1sccn1Cc1cccc2ccccc12 | – | inconclusive: 50.1 µM [inhibitor, partial curve, poor fit] |
| Cc1ccc(N(CC(=O)NCc2ccc(F)cc2)C(=O)CCC(=O)Nc2ccccn2)cc1C | – | inactive |
| Cc1cc2cc(CNC(=O)CCC(=O)O)ccc2n1C | – | active: 17.8 µM |
| Cc1nn2c(=O)cc(COC(=O)c3ccc(S(=O)(=O)N4CCCCC4)cc3)nc2s1 | – | inactive |
| Cc1nnc2n1N=C(c1ccc3c(c1)NC(=O)CO3)CS2 | – | inconclusive: 70.8 µM [inhibitor, partial curve] |
| CC1(C)Cc2c(c(=S)nc(-c3ccccc3)n2CCO)CO1 | – | inconclusive: 35.5 µM [inhibitor, single point] |
| CCS(=O)(=O)Nc1ccc(Cc2ccncc2)cc1 | – | inactive |
| CNC(=S)NNC(=O)c1cn(C)nc1C | – | active: 39.8 µM |
| CCCN1CCN(CCCNC(=O)C2CCN(c3nnc(-n4c(C)ccc4C)s3)CC2)CC1 | – | inconclusive: 89.1 µM [inhibitor, single point] |
| O=C(c1ccco1)N1CCC2(CC1)CN(c1ncccn1)C2 | inactive: 6.99% [at 12.7 µM] | – |
| COc1ccc(CNc2ncncc2-c2ccoc2)c(OC)c1 | inactive: -0.0692% [at 0.501 µM] | – |
| COc1cc(NS(=O)(=O)c2ccc(C)c(C)c2)c(OC)cc1Cl | – | inconclusive: 39.8 µM [inhibitor, single point] |

| Structure (SMILES) | activity, negative = inhibition | Potency |
| --- | --- | --- |
| Cc1ccc(C(=O)N2CCN(C(=O)CN3CCOCC3)C2)cc1 | – | inconclusive: 2.51 µM [inhibitor, partial curve, poor fit] |
| COc1cc(OC)c(NC(=O)CSc2nc3ccncc3[nH]2)cc1Cl | – | inactive |
| O=C(C[n+]1cccc(NC(=O)c2ccccc2)c1)c1ccc(NC(=O)c2ccccc2)cc1 | – | inconclusive: 89.1 µM [inhibitor, single point] |
| CN1CCN(S(=O)(=O)c2cccc(C(=O)Nc3cc(C(F)(F)F)ccc3N3CCCCC3)c2)CC1 | – | active: 44.7 µM |
| COc1ccc2[nH]c(=O)c(-c3noc(-c4ccc(F)cc4)n3)cc2c1 | inactive: -36.9% [at 12.7 µM] | – |
| Cc1ccc2c(c1)C(c1ccc(F)cc1)N(C(=O)c1cc3ccccc3oc1=O)CC(=O)N2 (configuration not stated) | – | inconclusive: 89.1 µM [inhibitor, single point] |
| COc1ccc(NC2CCCN(C(=O)c3cc4ncccn4n3)C2)cc1 (configuration not stated) | – | active: 35.5 µM |
| Cc1ccc2c(CN3CCC(C(N)=O)CC3)cc(=O)oc2c1C | – | inactive |
| Cc1ccc(C)c2sc(NC(=O)c3nc4ccccc4s3)nc12 | – | inactive |
| CCc1ccc(Nc2ccc(C(=O)O)cc2[N+](=O)[O-])cc1 | – | inconclusive: 50.1 µM [inhibitor, partial curve, poor fit] |
| O=C(COC(=O)c1cc2ccccc2cc1O)NC(=O)NCc1ccco1 | – | inconclusive: 89.1 µM [inhibitor, single point] |
| Oc1ccccc1N=Cc1c(O)ccc2ccccc12 | – | active: 7.94 µM |
| CN(Cc1ccc(Cl)cc1)C(=O)CCl | – | inconclusive: 44.7 µM [inhibitor, partial curve] |
| Cc1ccc(-c2nnc(N(C)C(=O)c3ccccn3)s2)cn1 | inconclusive: -57.9% [inhibitor] | – |
| CCCCNC(=O)CSc1nc2ccccc2nc1Cc1ccccc1 | – | inactive |
| COc1ccc(N(CC(=O)NN=C2CCN(C)CC2)S(=O)(=O)c2ccc(NC(C)=O)cc2)cc1 | – | inactive |
| O=C(CNc1ccc2c(c1)OCO2)N/N=C\c1cn(Cc2ccccc2)c2ccccc12 | – | inconclusive: 8.91 µM [inhibitor, partial curve, poor fit] |
| CCOc1ccc(N=Nc2c(=O)[nH]n3c(=O)cc(C)[nH]c23)cc1 | – | inconclusive: 1.12 µM [inhibitor, full curve, poor fit] |
| O=S1(=O)CC=C(CSC(=S)NC2CCS(=O)(=O)C2)C1 (configuration not stated) | – | active: 44.7 µM |
| COC(=O)c1cccc(NC(=O)c2onc3c2CCCC3)c1 | – | inconclusive: 5.01 µM [inhibitor, single point] |
| CCCC(=O)NC(=S)Nc1ccc(NC(=O)c2cccs2)cc1 | – | active: 11.2 µM |
| Cc1[nH]c2ccccc2c1C(=O)C(C)OC(=O)c1ccc([N+](=O)[O-])o1 (configuration not stated) | – | inconclusive: 44.7 µM [inhibitor, partial curve, poor fit] |
| O=C1C2C3C=CC(CO)(O3)C2C(=O)N1c1ccccc1-c1ccccc1 (configuration not stated) | – | active: 0.316 µM |
